From the supplement of paper PMC4967469
IC50 is the fitted dose that halves viability relative to control wells, and lower means more sensitive; a limit (>, <) means that the fit lies beyond the doses tested. The AUC spans the tested range (256-fold, ending at the top dose) of the same fit; the more sensitive the line, the further below 1. For part of these data: An inferred top dose is not printed in the source and was worked back from the curve model.

How the values were obtained:
Assay in all cases: Viability of human cancer cell lines after 72 h of drug (GDSC screen)
PIK-93 = compound: CC(=O)Nc1nc(C)c(-c2ccc(Cl)c(S(=O)(=O)NCCO)c2)s1 [PIK-93]; details: top dose 20 µM
Description: (§1)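 Human cancer cell lines in 384-well plates, medium with 10% serum, drug for 72 h over a 256-fold dose range (nine 2-fold or five 4-fold steps up to the top dose). Adherent lines were fixed and stained with the nucleic acid dye Syto60, suspension lines read with resazurin; signal relative to control wells, capped at 0 and 100%. One two-parameter sigmoid per drug and line, fitted in a mixed model over all curves with the slope shared within a line.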

ABT-263 = compound: CC1(C)CCC(c2ccc(Cl)cc2)=C(CN2CCN(c3ccc(C(=O)NS(=O)(=O)c4ccc(N[C@H](CCN5CCOCC5)CSc5ccccc5)c(S(=O)(=O)C(F)(F)F)c4)cc3)CC2)C1 [ABT-263]; details: top dose 2 µM; top dose inferred
Description: as §1

piperlongumine = compound: COc1cc(/C=C/C(=O)N2CCC=CC2=O)cc(OC)c1OC [piperlongumine]; details: top dose 10 µM
Description: as §1

GW843682X = compound: COc1cc2ncn(-c3cc(OCc4ccccc4C(F)(F)F)c(C(N)=O)s3)c2cc1OC [GW843682X]; details: top dose 0.256 µM
Description: as §1

GW 441756 = compound: Cn1cc(/C=C2\C(=O)Nc3cccnc32)c2ccccc21 [GW 441756]; details: top dose 2 µM; top dose inferred
Description: as §1

Salubrinal = compound: O=C(/C=C/c1ccccc1)NC(NC(=S)Nc1cccc2cccnc12)C(Cl)(Cl)Cl [Salubrinal]; details: top dose 16 µM; top dose inferred
Description: as §1

Cell Line | AUC (PIK-93) | IC50 (PIK-93) | AUC (ABT-263) | IC50 (ABT-263) | AUC (piperlongumine) | IC50 (piperlongumine) | AUC (GW843682X) | IC50 (GW843682X) | AUC (GW 441756) | IC50 (GW 441756) | AUC (Salubrinal) | IC50 (Salubrinal)
NCI-H82 (small cell lung carcinoma, suspension) | 0.804 | 9.37 µM | 0.918 | > 2 µM | 0.934 | > 10 µM | 0.465 | 0.0129 µM | 0.988 | > 2 µM | 0.932 | > 16 µM
NCI-H2135 (non-small cell lung carcinoma, adherent) | 0.739 | 5.88 µM | 0.966 | > 2 µM | 0.99 | > 10 µM | 0.889 | > 0.256 µM | 0.989 | > 2 µM | 0.951 | > 16 µM
SIMA (neuroblastoma, adherent) | 0.817 | 13.1 µM | 0.967 | > 2 µM | 0.823 | 6.93 µM | 0.923 | > 0.256 µM | 0.875 | > 2 µM | 0.82 | 10.8 µM
NCI-H524 (small cell lung carcinoma, suspension) | 0.897 | > 20 µM | 0.519 | 0.14 µM | 0.751 | 2.98 µM | 0.567 | 0.0239 µM | 0.991 | > 2 µM | 0.976 | > 16 µM
KS-1 (glioma, adherent) | 0.766 | 9.14 µM | 0.94 | > 2 µM | 0.687 | 2.39 µM | 0.598 | 0.0319 µM | 0.98 | > 2 µM | 0.814 | 11.5 µM
NCI-H1417 (small cell lung carcinoma, suspension) | 0.82 | 14.5 µM | 0.512 | 0.136 µM | 0.69 | 2.39 µM | 0.852 | > 0.256 µM | 0.974 | > 2 µM | 0.977 | > 16 µM
ETK-1 (biliary tract, adherent) | 0.858 | > 20 µM | 0.972 | > 2 µM | 0.757 | 3.86 µM | 0.506 | 0.0167 µM | 0.916 | > 2 µM | 0.915 | > 16 µM
MEG-01 (chronic myeloid leukaemia, suspension) | 0.85 | 13.8 µM | 0.618 | 0.259 µM | 0.732 | 2.73 µM | 0.667 | 0.0453 µM | 0.986 | > 2 µM | 0.908 | > 16 µM
NCI-H1436 (small cell lung carcinoma, suspension) | 0.885 | > 20 µM | 0.912 | > 2 µM | 0.771 | 4.38 µM | 0.801 | 0.146 µM | 0.981 | > 2 µM | 0.894 | > 16 µM
SK-N-FI (neuroblastoma, adherent) | 0.972 | > 20 µM | 0.978 | > 2 µM | 0.742 | 3.06 µM | 0.842 | 0.179 µM | 0.931 | > 2 µM | 0.976 | > 16 µM
NCI-H1838 (lung adenocarcinoma, adherent) | 0.96 | > 20 µM | 0.952 | > 2 µM | 0.836 | 8.77 µM | 0.976 | > 0.256 µM | 0.969 | > 2 µM | 0.879 | > 16 µM
YT (lymphoid neoplasm, suspension) | 0.787 | 7.31 µM | 0.464 | 0.102 µM | 0.834 | 5.16 µM | 0.992 | > 0.256 µM | 0.898 | 1.83 µM | 0.991 | > 16 µM
CPC-N (small cell lung carcinoma, suspension) | 0.818 | 12.7 µM | 0.608 | 0.254 µM | 0.696 | 2.35 µM | 0.651 | 0.0439 µM | 0.971 | > 2 µM | 0.981 | > 16 µM
P30-OHK (lymphoblastic leukaemia, suspension) | 0.189 | 0.184 µM | 0.709 | 0.431 µM | 0.63 | 1.34 µM | 0.944 | > 0.256 µM | 0.991 | > 2 µM | 0.961 | > 16 µM
C2BBe1 (large intestine, adherent) | 0.924 | > 20 µM | 0.858 | > 2 µM | 0.828 | 7.36 µM | 0.957 | > 0.256 µM | 0.981 | > 2 µM | 0.975 | > 16 µM
OCI-AML3 (acute myeloid leukaemia, suspension) | 0.324 | 0.438 µM | 0.984 | > 2 µM | 0.791 | 3.79 µM | 0.599 | 0.0287 µM | 0.986 | > 2 µM | 0.98 | > 16 µM
LS-1034 (large intestine, adherent) | 0.752 | 7.23 µM | 0.983 | > 2 µM | 0.86 | 9.89 µM | 0.65 | 0.0435 µM | 0.985 | > 2 µM | 0.957 | > 16 µM
GAK (melanoma, adherent) | 0.902 | > 20 µM | 0.99 | > 2 µM | 0.824 | 5.57 µM | 0.835 | 0.156 µM | 0.964 | > 2 µM | 0.925 | > 16 µM
JVM-2 (lymphoid neoplasm, suspension) | 0.841 | 18.8 µM | 0.887 | > 2 µM | 0.648 | 1.77 µM | 0.967 | > 0.256 µM | 0.982 | > 2 µM | 0.979 | > 16 µM
HCC2157 (breast, suspension) | 0.953 | > 20 µM | 0.717 | 0.533 µM | 0.763 | 3.77 µM | 0.96 | > 0.256 µM | 0.872 | > 2 µM | 0.933 | > 16 µM
NB6 (neuroblastoma, adherent) | 0.904 | > 20 µM | 0.911 | > 2 µM | 0.982 | > 10 µM | 0.751 | 0.102 µM | 0.967 | > 2 µM | 0.984 | > 16 µM
